The whole screen tested about 310,000 compounds, of which about 14,000 (4.5%) showed an effect of 50% or more. The effect is printed as a negative number. The list shows a part of the results.
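Further: peak tail current of the secondary pulse compared with the same well before compound.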

For the experiment, the target named is human ether-à-go-go-related gene (hERG) potassium channel (human, UniProt Q12809). Description: primary screen, population patch clamp on CHO cells stably expressing hERG.
human ether-à-go-go-related gene (hERG) potassium channel, sequence (Q12809 whole entry, looked up): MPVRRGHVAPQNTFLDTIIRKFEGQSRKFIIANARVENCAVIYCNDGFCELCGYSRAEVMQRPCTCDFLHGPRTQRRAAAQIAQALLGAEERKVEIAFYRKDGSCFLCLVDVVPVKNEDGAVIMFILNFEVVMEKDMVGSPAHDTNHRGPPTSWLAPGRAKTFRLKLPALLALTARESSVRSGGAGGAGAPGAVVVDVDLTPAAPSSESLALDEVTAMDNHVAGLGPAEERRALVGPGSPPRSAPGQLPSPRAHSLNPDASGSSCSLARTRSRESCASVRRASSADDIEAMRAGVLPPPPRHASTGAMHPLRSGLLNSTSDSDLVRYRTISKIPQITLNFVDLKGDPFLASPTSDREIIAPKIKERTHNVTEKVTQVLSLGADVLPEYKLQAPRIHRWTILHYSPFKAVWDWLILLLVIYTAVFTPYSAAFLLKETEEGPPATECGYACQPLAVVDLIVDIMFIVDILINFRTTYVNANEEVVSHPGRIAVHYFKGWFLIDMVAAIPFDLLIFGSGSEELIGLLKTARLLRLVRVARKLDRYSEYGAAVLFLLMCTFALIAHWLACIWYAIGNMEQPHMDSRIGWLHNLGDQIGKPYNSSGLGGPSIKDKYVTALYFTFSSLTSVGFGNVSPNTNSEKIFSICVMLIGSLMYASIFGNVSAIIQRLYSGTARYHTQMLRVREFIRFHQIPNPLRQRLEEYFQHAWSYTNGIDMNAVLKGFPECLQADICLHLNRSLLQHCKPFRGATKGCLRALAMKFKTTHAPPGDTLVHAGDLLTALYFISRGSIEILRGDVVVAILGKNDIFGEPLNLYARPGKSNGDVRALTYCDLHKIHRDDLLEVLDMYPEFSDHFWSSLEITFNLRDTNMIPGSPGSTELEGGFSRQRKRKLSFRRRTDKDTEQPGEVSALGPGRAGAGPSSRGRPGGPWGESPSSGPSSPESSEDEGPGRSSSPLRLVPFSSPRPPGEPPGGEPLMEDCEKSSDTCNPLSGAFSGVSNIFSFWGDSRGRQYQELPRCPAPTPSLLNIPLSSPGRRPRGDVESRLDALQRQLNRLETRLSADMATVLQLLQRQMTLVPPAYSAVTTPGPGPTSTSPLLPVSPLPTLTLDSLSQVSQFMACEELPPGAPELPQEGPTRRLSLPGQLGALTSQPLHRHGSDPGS
As to `Cn1c(=O)cc(OCCCC(=O)N2CCN(Cc3ccc4c(c3)OCO4)CC2)c2ccccc21`, the “hERG current change (%, negative = inhibition) at 10uM” value is -26.2%.
The figure for `O=C(/C=C/c1ccc(Cl)cc1Cl)NC(=S)Nc1ccc(CN2CCOCC2)cc1` is -3.32%.
With `COc1cccc(-n2cc(CNC(=O)C3CCC(=O)N(C4CC4)C3)cn2)c1` (centres unmarked) the figure was -11%; with `O=[N+]([O-])c1ccccc1/C=N/n1c(COc2ccccc2)n[nH]c1=S`, 2.43%; with `CC(C)N=C1NN=C(c2ccc(F)cc2)CS1`, -10.1%.
Regarding `FC(F)(F)c1ccc(Nc2nnnc3ccccc23)cc1`, the “hERG current change (%, negative = inhibition) at 10uM” value is recorded as 4.83%.
With `O=C(NCCCN1CCOCC1)/C(=C/c1cccnc1)NC(=O)c1ccccc1` the figure was -25%; with `COCCNc1nc(N)c([N+](=O)[O-])c(N2CCCCCC2)n1`, -6.79%.
With `CC(Sc1nnc(COc2ccccc2)n1-c1ccccc1)C(=O)O` (centres unmarked) the figure was 17.8%; with `CC1=NCCN1CCNC(=O)Nc1ccc(C(C)(C)C)cc1`, 7.42%; with `COC(=O)c1ccc(/C=N/NC(=O)c2ccc3nc[nH]c3c2)cc1`, 19.3%.
With `CC(C)C(c1nnnn1Cc1ccco1)N1CCN(c2nc3ccccc3s2)CC1` (centres unmarked) the figure was -6.54%; with `C#CCOCCOCCOCCNc1nc(N2CCN(C(=O)C(Cc3cc4ccccc4[nH]3)n3cc(C(N)Cc4ccc(O)cc4)nn3)CC2)nc(N2CCN(C(=O)C(CCC(=O)O)n3cc(C(N)C(C)CC)nn3)CC2)n1.Cl` (centres unmarked), 21.5%.
`Cc1c(/C=N/NC(=O)C(NC(=O)c2ccc3c(c2)OCO3)C(C)C)c2ccccc2n1C` (centres unmarked): the “hERG current change (%, negative = inhibition) at 10uM” value was -2.48%.
The figure for `CCCCCCOC(=O)c1ccc(OC(=O)c2cccnc2)cc1` is 12.6%; for `Cc1cc(Br)cc(Cl)c1OCC(=O)NC(=O)NCc1ccccc1` it is 6.27%.
The figure for `O=C(NCC(c1ccco1)N1CCc2ccccc2C1)c1ccc(Br)cc1` (centres unmarked) is -12.6%; for `O=C(O)CC(c1ccccc1)c1ccccc1` it is -33.8%; for `O=C(O)CCSc1nnc(COc2cccc3ccccc23)n1-c1cccc(Cl)c1` it is 22.5%.
The figure for `Cc1ccc(NC(=S)NCc2ccc3[nH]c4c(c3c2)CCCC4)cc1` is -1.45%; for `CN(CC(=O)NCC1CCCCC1)S(=O)(=O)c1ccc(Cl)cc1` it is 8.46%; for `O=C(COC(=O)c1cccs1)NC1CCCCC1` it is 2.51%.
As to `Cc1ccc(OCC(=O)N/N=C\c2ccncc2)c(C)c1`, the “hERG current change (%, negative = inhibition) at 10uM” value was -33.6%.
With `CC(CC(=O)Nc1nccs1)c1ccccc1` (centres unmarked) the figure was 15%.
With `Cc1cccc(NC(=O)C2CCN(S(=O)(=O)c3cccc4nsnc34)CC2)n1` the figure was -2.82%; with `Cc1cc(C(=O)OCC(=O)Nc2cc(S(=O)(=O)N(C)C)ccc2Cl)c2ccccc2n1`, -2.06%.
With `CC1CCCCN1C(=S)NC(=O)c1cc(Br)ccc1Cl` (centres unmarked) the figure was 4.09%; with `CCOC(=O)/C(=N\Nc1ccccc1)N1CC1`, 34.3%.
`CCCCCN(C(=O)CCC(=O)OCC(=O)N1C(C)CCCC1C)c1c(N)n(CCCC)c(=O)[nH]c1=O` (centres unmarked): the “hERG current change (%, negative = inhibition) at 10uM” value came to 12.9%.
The figure for `CC(=O)c1ccc(N=Nc2c(C)[nH]n(-c3ccccc3)c2=O)cc1` is 8.59%.
With `c1ccc(CSc2nnc(-c3ccncc3)o2)cc1` the figure was -21.6%; with `O=C(Nc1sc2c(c1C(=O)c1ccc(Cl)cc1)CCCC2)c1cccnc1`, 6.14%; with `CCOC(=O)C1(Cc2cccc(Cl)c2)CCCN(CCO)C1` (centres unmarked), 2.16%.
With `CN(C(=O)c1ccc(NC(=O)Cc2ccc(NC(=O)C3CCCN(C(=O)C4CCC4)C3)cc2)cc1)C1CC1` (centres unmarked) the figure was 7.5%; with `CC1=CS(=O)(=O)CC1SC1=NC(C)=N[NH2+]1.[Br-]` (centres unmarked), 12.3%; with `CC1CCCN(S(=O)(=O)c2ccc(S(=O)(=O)NC(C)c3cccs3)cc2)C1` (centres unmarked), -14%.
For the compound `O=C(COc1ccc(S(=O)(=O)N2CCCCC2)cc1)NCc1ccncc1`, the “hERG current change (%, negative = inhibition) at 10uM” value is -26%.
The figure for `COc1ccc(-n2c(CNc3ccc(C)cc3)nnc2SCC(=O)Nc2nc(-c3ccccc3)cs2)cc1` is -23.1%.
With `Cc1ccc(/C=N/N=C2/NC(=O)CS2)o1`, the “hERG current change (%, negative = inhibition) at 10uM” value worked out at 24.6%.
Consider `CCOC(=O)C1CCN(C(=S)Nc2cccc(C)c2C)CC1`, for which the “hERG current change (%, negative = inhibition) at 10uM” value is -7%.
The figure for `O=[N+]([O-])c1ccc(Cl)cc1Sc1nc2ccccc2o1` is -1.77%; for `Cc1cc(Cl)ccc1OCC(=O)NCC(c1cccs1)N1CCOCC1` (centres unmarked) it is -4.97%; for `CN1CCN(c2ccc(NC(=O)c3cc4ccccc4o3)cc2)CC1` it is -72.3%.
With `O=C(NCc1cccs1)C1CCCN1C(=O)Nc1ccccc1[N+](=O)[O-]` (centres unmarked) the figure was -21.3%.
